According to the supplement of paper PMC11417369:
The list shows a part of the results.

Each sequence was assayed on PfSIP2 AP2 domain 1 (GST-tagged) (assay: gcPBM binding intensity (ln(normalized median fluorescence intensity)); higher = stronger DNA binding).
Method in brief: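 The highest Masliner-normalised natural-log median intensity across replicate spots of either probe orientation is reported as binding intensity. GST-tagged P. falciparum DNA-binding domains expressed in E. coli were applied for 1 h to an Agilent 4 × 180k array of primer-extended double-stranded 36-bp intergenic genomic probes plus negative controls, and bound protein was detected with Alexa488 anti-GST antibody and scanned at 488 nm.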

Sequence	gcPBM binding intensity (ln)
GTTTTTAATGTTTTGACATGCAATATTAAAAATAAT [TGCATGCA_site174]	7.03
AACAGATATGAATAGAAAAAAAAAAATGGCCCATAT [TGCATGCA_negctrl_site443]	6.69
TATAATGATAATAATAGTACACATTAGAACGGGAGG [XGTACX_site2563]	7.35
TATAATAATAAAAACACACACGTTGATTGTATTAGC [CACACA_site5336]	6.76
CCTATTATTTCTAAAACACACAAAAATATAAAAGAA [CACACA_site2708]	7.39
ATAATATTATTTAAAAGTACTAACAAAAGAATATTA [XGTACX_site4989]	7.02
TCTTTTTTTTATTATATCATTGAAATGTTAAAACGA [XGTACX_negctrl_site473]	6.91
ATTAAAAAAAATATATATGTATAAAACAAGCAAAAT [XGTACX_negctrl_site474]	7.31
TACACAAACAAACACACACACACACCCCCACAAAAA [CACACA_site2428]	7.99
GACCACTTTAGGATTTGTACACATATTATATATGCA [XGTACX_site6579]	7.23
TAGCCATTTTTATATTGTACTTATATAATCACATTT [XGTACX_site4407]	7.29
ATAAAAAAAAATAACACACAGACATAAGAATAAATA [CACACA_site4162]	6.91
ATATAAGAAAAGCACACACACACAAAAAAAAAAAAA [CACACA_site2827]	7.01
AAAAAAATTAAAAATTAAAATTAAAAATAATATATA [GTGCAC_negctrl_site466]	6.56
AATGTATAAATCCATACACACATAAATTTTAATAAT [CACACA_site2363]	6.76
TAATTTCTTTAGGGGGTGCTTTTATAGTTTTTATTA	9.53
TTTATATTTATGATGGGTACACAAAATTTTACCCAT [XGTACX_site1504]	6.96
CTGTCTGCAGATATGGTGCATTTGTAAGATCTTACA [GTGCAC_site9870]	10.4
TTCATAAAATGTGTCTGTACGTAAATGTATTACACT [XGTACX_site3179]	7.02
AACATTATATATTGCAGTACTCCCATATGTTGATAA [XGTACX_site3119]	7.12
ATATATATATATATATGTACACATAAAAAGAAAGAA [XGTACX_site1603]	9.7
TTTAGTTGTGAGAATTGTACATATTTTCCTTTTACC [XGTACX_site7291]	6.98

Sequence	gcPBM binding intensity (ln)
TATATACCTATATACACACACATATATTATAGATAT [CACACA_site6266]	7.2
TATATATATGAACAATGTACGTATAATATTTTTATT [XGTACX_site7561]	7.08
GATCTATACTATAATACACACATTTGATGAATGTAA [CACACA_site6163]	7.06
GCAATTTTTTTTAAGAGTACTAATATATTATAGTGG [XGTACX_site7316]	7.11
TTTTTTTAATAGTGTGCACACAATATACAGAAAAAA [CACACA_site8399]	9.3
ATATATATATATATATGTACATATGTTTGTTTCCGC [XGTACX_site5167]	9.7
CATAATTTAAAAAAGGTGCAAAATGGATAATATATA [GTGCAC_site9657]	11
CATACATACATACATACATGCATACATACATACATA [TGCATGCA_site218]	7.95
TTTTTTTTCATTTTATGTACACATAATTTAATATAT [XGTACX_site5768]	7.54
AAAAAGTGACTCCTTACACACTTTACATAATTTAGG [CACACA_site8176]	6.78
ATATACATATATATATGTACTTATTTATTTATTTAT [XGTACX_site2532]	7.16
ATATATATATATAATTGTACATATAATATAATATTA [XGTACX_site5216]	9.25
ATATATATTATATATAGTACTTTTTTGCGCAAATAT [XGTACX_site6849]	7.4
AATATGTTATAAATATGTTATAAATAATAAATAAAT [GTGCAC_negctrl_site135]	6.95
AACACATGCTTGGTCACACACGTATGCATATTTAAA [CACACA_site5206]	7.13
ACAATGTCATTTGCTAGTACGCATATTGGTTGTAAA [XGTACX_site8924]	7.07
ATTTTTTTTTTTTTATGTACATATAGGTGCAAATCA [XGTACX_site6748]	11.4
TAAAAAAAAAAAAAAAGTACACACATACATATAAAT [XGTACX_site3752]	7.37
TATTTTTTTTTTTTTTTTTTTTTAAAACATATCAAT [CACACA_negctrl_site925]	6.69
TAATTATATATATACACACACATACAGACAAATAAA [CACACA_site3412]	7.28
GAAATTTGTTATTGCACACAAATTTTTCTTTTTTTA [CACACA_site2339]	6.97
ATATTTATATATATCATACACACTAATATGTATATT [CACACA_site3409]	6.9
